{"source": "PubChem BioAssay AID488896", "about": "(Broad Institute, 2010)", "note": "In all, about 320,000 compounds went through this assay and about 3,100 (0.97%) were called active. Inconclusive results, whose numbers are uncertain, are shown with a selection of clear calls.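 How the source made its calls: active means mean replicate inhibition of at least 70% and a set share of replicates each scoring 70 or more; inconclusive means meets just one of the two criteria; inactive means fails both criteria.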", "data": [{"biological_target": "Scavenger receptor class B member 1 (Mus musculus) (UniProt Q61009)", "sequence (Q61009 whole entry, looked up)": "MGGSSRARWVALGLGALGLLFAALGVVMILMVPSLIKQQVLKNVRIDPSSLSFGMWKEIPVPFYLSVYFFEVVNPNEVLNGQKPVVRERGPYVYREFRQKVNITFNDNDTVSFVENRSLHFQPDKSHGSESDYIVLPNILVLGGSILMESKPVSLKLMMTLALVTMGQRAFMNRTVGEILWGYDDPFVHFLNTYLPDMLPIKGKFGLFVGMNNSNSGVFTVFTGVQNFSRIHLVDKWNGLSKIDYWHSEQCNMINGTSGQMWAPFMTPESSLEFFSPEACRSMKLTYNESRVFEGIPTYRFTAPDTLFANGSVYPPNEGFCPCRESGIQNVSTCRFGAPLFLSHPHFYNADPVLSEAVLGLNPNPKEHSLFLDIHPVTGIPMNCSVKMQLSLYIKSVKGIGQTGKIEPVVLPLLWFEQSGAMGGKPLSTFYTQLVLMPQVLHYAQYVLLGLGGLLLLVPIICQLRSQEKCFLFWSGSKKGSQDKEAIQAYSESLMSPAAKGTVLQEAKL", "assay": "inhibitors of SR-BI mediated HDL lipid uptake, primary screen, ldlA[mSR-BI] cells, fluorescence, single point (AID 488896);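 further: 0% = median of neutral control wells and 100% = median of positive control wells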", "conditions": "ldlA[mSR-BI] CHO cells, DiI-HDL uptake fluorescence, 3 h; at 12.5 µM; active compounds read high", "values": [{"smiles": "O=C(N/N=C/c1sc2ccccc2c1O)c1ccccc1", "inhibition": "active: 118%"}, {"smiles": "COCc1nc(-c2ccc(-c3ccccc3)nc2OC)no1", "inhibition": "inactive: 40%"}, {"smiles": "O=C(Nc1nc2ccccc2s1)c1cc(-c2ccccc2)nn1-c1ccccc1", "inhibition": "inactive: 65.8%"}, {"smiles": "CCCc1c(C(=O)N/N=C/c2ccc(OCc3ccccc3)c(OC)c2)nnn1-c1nonc1N", "inhibition": "active: 75.8%"}, {"smiles": "COc1cc(C(=O)Oc2cc(C)cc(C)c2)cc(OC)c1OC", "inhibition": "active: 77.5%"}, {"smiles": "N#CC(C#N)=c1ccc2c(c1)N1C3=C(CCCC3)CC3CCCCC31N=2", "note": "(centres undefined)", "inhibition": "inactive: 53%"}, {"smiles": "Nc1c(C(=O)Nc2ccccc2F)sc2nc(-c3cccnc3)ccc12", "inhibition": "inactive: 16.8%"}, {"smiles": "COc1ccc(/C=C/c2c(-c3ccc(OC)cc3)oc3ccccc23)cc1", "inhibition": "active: 78.1%"}, {"smiles": "COC(=O)c1cc2c(ccn2-c2ccc(F)cc2)n1CC(=O)N1CCN(C(=O)c2ccco2)CC1", "inhibition": "inconclusive: 70.6%"}, {"smiles": "COc1ccc([C@H]2CC(=O)C=C(c3ccc4[nH]ccc4c3)C2)cc1OC", "inhibition": "inconclusive: 70.3%"}, {"smiles": "O=c1c2ccccc2c(C=Nc2cccc(O)c2)c(O)n1-c1ccc2c(c1)OCO2", "inhibition": "inconclusive: 70.2%"}, {"smiles": "COc1cc(-c2nnc(-c3cc(-c4ccccc4)nc4ccccc34)o2)cc(OC)c1OC", "inhibition": "inconclusive: 72.2%"}, {"smiles": "Cc1ccc(CN2C(=O)[C@H]3Cc4c([nH]c5ccccc45)C(C)(C)N3C2=O)cc1", "inhibition": "inconclusive: 74.2%"}, {"smiles": "COc1ccc(-c2c(-c3cc(OC)cc(OC)c3)sc3ccc(OC)cc23)cc1", "inhibition": "inconclusive: 71.2%"}, {"smiles": "COc1ccc(-n2nc(C(=O)Nc3ccc(OC)c(OC)c3)c3c4ccccc4n(C)c3c2=O)cc1", "inhibition": "inconclusive: 70.9%"}, {"smiles": "COc1ccc(-c2cc(-c3nc4ccccn4c3NCc3ccccc3)ccc2OC)cc1", "inhibition": "inconclusive: 77.5%"}, {"smiles": "CCCCCOCC1CC(C/C(C)=N/NC(N)=S)C(=O)O1", "note": "(centres undefined)", "inhibition": "inconclusive: 74%"}, {"smiles": "CN(Cc1cccc(F)c1)C(=O)c1ccccc1Sc1ccccc1C#N", "inhibition": "inconclusive: 70.5%"}, {"smiles": "NC(=S)N/N=C/C=C/c1ccccc1", "inhibition": "inconclusive: 70%"}, {"smiles": "COc1ccc(Cl)cc1NC(=O)C1CCN(C(=O)Nc2ccccc2)CC1", "inhibition": "inconclusive: 72.7%"}, {"smiles": "N#CCSc1ncccc1-c1nc2ccccc2[nH]1", "inhibition": "inactive: 6.08%"}, {"smiles": "CCOc1cccc(/C=N/NC(=S)Nc2cc(S(=O)(=O)N3CCOCC3)ccc2N2CCOCC2)c1O", "inhibition": "active: 93.5%"}, {"smiles": "Cc1ccc(/C=N/OC(=O)c2nn(C)cc2Cl)cc1", "inhibition": "inactive: -10.9%"}, {"smiles": "COc1ccc(-c2noc(N3CCC(C(=O)Nc4ccc(OC)cc4OC)CC3)n2)cc1", "inhibition": "inconclusive: 70.1%"}, {"smiles": "COc1ccc(NC(=O)c2cc([N+](=O)[O-])ccc2N2CCCCC2)cc1OC", "inhibition": "inconclusive: 70.8%"}, {"smiles": "CC1CC(=O)c2c(cc3c(-c4c(O)cc(O)c5c(O)c6c(cc45)OC(C)CC6=O)c(O)cc(O)c3c2O)O1", "note": "(centres undefined)", "inhibition": "active: 117%"}, {"smiles": "N#C/C(=C\\c1ccc(O)c(O)c1)C(=O)NCCc1ccccc1", "inhibition": "inactive: 7.94%"}, {"smiles": "CN(C)c1ccc(N=Nc2ccccc2C(=O)OCC(=O)Nc2ccccc2C(F)(F)F)cc1", "inhibition": "inconclusive: 73.1%"}, {"smiles": "Cc1nn(-c2ccccc2)c(C)c1/C=N/NC(=O)c1cc(-c2cccc3ccccc23)n[nH]1", "inhibition": "inconclusive: 73.2%"}, {"smiles": "COc1cc2ccccc2cc1C(=O)Nc1ccccc1C", "inhibition": "inconclusive: 74.8%"}, {"smiles": "Cc1ccc(C(=O)Nc2cccc(S(=O)(=O)N3CCCCC3)c2)cc1[N+](=O)[O-]", "inhibition": "inconclusive: 70.7%"}, {"smiles": "COc1cccc(/C=N/NC(=O)c2cccc(N3CCCC3=O)c2)c1", "inhibition": "inconclusive: 76.7%"}, {"smiles": "CCCCN1CC(O)=C(c2nc(-c3ccc(Br)cc3)cs2)C1=N", "inhibition": "inconclusive: 74.3%"}, {"smiles": "O=C1COc2ccc(C(=O)COC(=O)/C=C/c3cccc(F)c3)cc2N1", "inhibition": "inactive: 6.54%"}, {"smiles": "C=CCN=C1S/C(=C\\c2ccc(N(C)C)cc2)C(=O)N1CC=C", "inhibition": "inactive: 32.4%"}, {"smiles": "COc1ccc(CCNC(=O)c2cc(-c3ccccn3)nc3c(Cl)cccc23)cc1OC", "inhibition": "inconclusive: 78.2%"}, {"smiles": "Cc1nn(-c2ccccc2)c(N2CCCC2)c1/C=N/NC(=S)Nc1ccccc1F", "inhibition": "inconclusive: 71.8%"}, {"smiles": "Cc1ccc2nc(-c3cccnc3)oc2c1", "inhibition": "inactive: -7.57%"}, {"smiles": "COc1cc(NS(=O)(=O)c2cc(NC(C)=O)ccc2OC)c(OC)cc1NC(=O)c1ccccc1", "inhibition": "inconclusive: 70.9%"}, {"smiles": "O=C(CCn1c(=O)c2cccn2c2cccnc21)N1CCN(c2cccc(Cl)c2)CC1", "inhibition": "inconclusive: 73.3%"}, {"smiles": "S=C1NC(c2cccs2)=CC(c2ccc(Br)cc2)N1", "note": "(centres undefined)", "inhibition": "inconclusive: 77%"}, {"smiles": "Oc1ccc(C=NNc2nc3ccccc3s2)c(O)c1", "inhibition": "inconclusive: 74.3%"}, {"smiles": "CC(=O)c1c(C)[nH]c(C(=O)Nc2cccc(S(=O)(=O)N(C)C)c2)c1C", "inhibition": "inconclusive: 70.6%"}, {"smiles": "CN1CCN(c2ncnc3c2c(-c2ccccc2)cn3-c2ccc(F)cc2)CC1", "inhibition": "inactive: 8.55%"}, {"smiles": "CCOc1ccccc1/C=C/c1onc(C)c1S(=O)(=O)N1CCC(C(=O)NC)CC1", "inhibition": "inconclusive: 72.3%"}, {"smiles": "CCOC(=O)C1CCN(C(=O)Cn2cnc3sc(C)c(S(=O)(=O)N4CCC(C)CC4)c3c2=O)CC1", "inhibition": "inconclusive: 71%"}, {"smiles": "COc1ccc(Nc2nc(N)nc(CN(C)C3CCCCC3)n2)cc1", "inhibition": "inactive: -37.6%"}, {"smiles": "COc1cc(/C=N\\Nc2ccc([N+](=O)[O-])cc2)ccc1OCC(=O)Nc1ccc(C)c(C)c1", "inhibition": "inconclusive: 72.4%"}, {"smiles": "O=C(Nc1cccc(S(=O)(=O)N2CCOCC2)c1)c1ccc(N2CCOCC2)c([N+](=O)[O-])c1", "inhibition": "inconclusive: 75.8%"}, {"smiles": "CNC(=O)/C(C#N)=C1\\SC(Cc2ccc(F)cc2)C(=O)N1c1ccccc1C", "note": "(centres undefined)", "inhibition": "inactive: 7.52%"}, {"smiles": "CCOc1cc(NC(=O)c2ccccn2)c(OCC)cc1NC(=O)c1ccc(C)cc1", "inhibition": "inconclusive: 70.4%"}, {"smiles": "CCCCCCCCC(=O)Nc1cc(C)ccc1OC", "inhibition": "inactive: -5.11%"}, {"smiles": "COc1ccc(NC(=O)c2oc3ccc(S(=O)(=O)N4CCC5(CC4)OCCO5)cc3c2C)cc1", "inhibition": "inconclusive: 74.5%"}, {"smiles": "C/C(=N\\N1C(=O)c2ccccc2NC1c1ccccc1)c1ccccc1O", "note": "(centres undefined)", "inhibition": "active: 84.7%"}]}]}
